Measurements published in paper PMC7564666.
Substitutions are numbered along the chain they refer to. These are yes or no findings as the source states them, for the method shown. In cells and extracts the contact can be indirect. Some entries that bind do so weakly or less than the wild type. Sequences can lack the tags named with a protein.

By UniProt entry, the sequences of proteins in these tests, tags left out.
UniProt Q9UKV8: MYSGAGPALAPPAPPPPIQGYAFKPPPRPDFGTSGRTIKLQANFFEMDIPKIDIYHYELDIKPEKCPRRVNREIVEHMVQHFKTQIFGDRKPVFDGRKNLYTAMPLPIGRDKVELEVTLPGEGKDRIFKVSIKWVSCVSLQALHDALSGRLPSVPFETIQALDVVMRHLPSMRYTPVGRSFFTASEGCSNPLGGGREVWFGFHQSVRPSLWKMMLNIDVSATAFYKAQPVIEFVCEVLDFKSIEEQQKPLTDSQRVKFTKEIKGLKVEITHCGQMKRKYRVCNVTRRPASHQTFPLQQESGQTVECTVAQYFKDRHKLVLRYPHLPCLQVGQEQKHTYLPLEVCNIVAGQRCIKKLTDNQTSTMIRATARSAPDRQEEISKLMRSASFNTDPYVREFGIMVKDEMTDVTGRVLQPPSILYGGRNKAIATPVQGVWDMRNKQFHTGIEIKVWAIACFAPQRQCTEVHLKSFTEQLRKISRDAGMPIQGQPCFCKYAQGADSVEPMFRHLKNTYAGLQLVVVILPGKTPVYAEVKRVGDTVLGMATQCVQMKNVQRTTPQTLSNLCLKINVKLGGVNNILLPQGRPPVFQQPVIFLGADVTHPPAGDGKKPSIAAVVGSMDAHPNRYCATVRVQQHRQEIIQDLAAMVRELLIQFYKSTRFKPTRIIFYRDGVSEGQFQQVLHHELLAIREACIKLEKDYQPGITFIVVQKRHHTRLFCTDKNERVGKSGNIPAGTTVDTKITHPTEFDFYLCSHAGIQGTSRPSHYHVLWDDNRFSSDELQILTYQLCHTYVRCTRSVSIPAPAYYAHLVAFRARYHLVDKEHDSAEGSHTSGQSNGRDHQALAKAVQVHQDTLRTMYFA

Columns and labels:
Assay in all cases: pull-down; GST-LASP1 phospho-mutants on glutathione-agarose beads with 231S total lysate (Co-IP buffer; endogenous LASP1 present); Western blot for Ago2; only the target purified
GST-LASP1 Y171F (human) = target: T1, GST-LASP1 Y171F (human) (UniProt Q14847)
T1 sequence: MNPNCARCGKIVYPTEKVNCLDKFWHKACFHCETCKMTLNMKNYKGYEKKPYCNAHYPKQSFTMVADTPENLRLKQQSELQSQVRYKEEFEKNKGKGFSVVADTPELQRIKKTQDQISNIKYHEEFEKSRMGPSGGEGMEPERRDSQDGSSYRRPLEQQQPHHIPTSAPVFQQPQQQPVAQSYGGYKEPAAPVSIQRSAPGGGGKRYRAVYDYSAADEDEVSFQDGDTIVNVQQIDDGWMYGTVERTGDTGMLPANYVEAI

[1] = target: T2, GST-LASP1 S146D/Y171D (human) (UniProt Q14847)
T2 sequence: T1 sequence with S146D, F171D

[2] = target: T3, GST-LASP1 S146A/Y171F (human) (UniProt Q14847)
T3 sequence: T1 sequence with S146A

[3] = target: T4, GST-LASP1 S146A/Y171D (human) (UniProt Q14847)
T4 sequence: T1 sequence with S146A, F171D

GST-LASP1 S146D (human) = target: T5, GST-LASP1 S146D (human) (UniProt Q14847)
T5 sequence: T1 sequence with S146D, F171Y

GST-LASP1 Y171D (human) = target: T6, GST-LASP1 Y171D (human) (UniProt Q14847)
T6 sequence: T1 sequence with F171D

binding (GST-LASP1 Y171F (human)): binds
binding [1]: binds
binding [2]: binds
binding [3]: binds
binding (GST-LASP1 S146D (human)): binds
binding (GST-LASP1 Y171D (human)): binds
Substance: argonaute 2 (Ago2), endogenous (from UniProt Q9UKV8 1-859)
